# Test results reported in publication PMC4336329 (PLoS ONE, 2015).
# The campaign covered roughly 310,000 compounds. About 2,200 (0.71%) showed an effect of 50% or more. The effect is printed as a negative number. Some of the results follow.
# Biological target: human ether-à-go-go-related gene (hERG) potassium channel (human, UniProt Q12809)
# Experiment: primary screen, population patch clamp on CHO cells stably expressing hERG
# human ether-à-go-go-related gene (hERG) potassium channel, sequence (Q12809 whole entry, looked up): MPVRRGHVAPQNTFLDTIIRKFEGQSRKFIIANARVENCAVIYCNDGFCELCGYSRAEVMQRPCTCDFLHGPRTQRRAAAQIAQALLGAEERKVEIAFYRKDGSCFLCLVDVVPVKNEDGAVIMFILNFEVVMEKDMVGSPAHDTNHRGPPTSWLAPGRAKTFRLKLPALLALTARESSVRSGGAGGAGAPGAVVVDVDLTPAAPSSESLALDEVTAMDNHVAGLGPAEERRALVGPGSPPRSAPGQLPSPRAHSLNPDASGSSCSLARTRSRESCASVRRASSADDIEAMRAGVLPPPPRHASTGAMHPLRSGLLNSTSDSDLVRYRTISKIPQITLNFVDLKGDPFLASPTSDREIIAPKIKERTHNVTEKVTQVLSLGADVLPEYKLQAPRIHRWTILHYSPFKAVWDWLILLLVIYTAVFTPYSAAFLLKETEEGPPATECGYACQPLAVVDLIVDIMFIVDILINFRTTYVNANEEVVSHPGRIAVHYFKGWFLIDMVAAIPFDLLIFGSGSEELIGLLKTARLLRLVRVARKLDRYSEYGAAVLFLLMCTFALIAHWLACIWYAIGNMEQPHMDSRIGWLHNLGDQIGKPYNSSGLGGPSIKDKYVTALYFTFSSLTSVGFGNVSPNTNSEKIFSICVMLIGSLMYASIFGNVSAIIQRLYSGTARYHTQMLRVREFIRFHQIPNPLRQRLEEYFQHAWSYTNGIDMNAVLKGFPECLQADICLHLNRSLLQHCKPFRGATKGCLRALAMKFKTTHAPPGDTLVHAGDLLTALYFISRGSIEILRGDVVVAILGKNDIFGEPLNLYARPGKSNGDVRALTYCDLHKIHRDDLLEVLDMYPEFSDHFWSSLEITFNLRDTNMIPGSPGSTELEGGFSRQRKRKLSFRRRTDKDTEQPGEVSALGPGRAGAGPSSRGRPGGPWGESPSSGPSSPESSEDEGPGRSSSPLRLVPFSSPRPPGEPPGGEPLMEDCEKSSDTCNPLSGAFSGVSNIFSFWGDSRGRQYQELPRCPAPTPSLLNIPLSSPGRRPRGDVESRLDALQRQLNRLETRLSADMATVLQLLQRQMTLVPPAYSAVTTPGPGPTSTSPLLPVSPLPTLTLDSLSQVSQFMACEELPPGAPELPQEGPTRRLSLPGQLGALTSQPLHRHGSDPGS
row,Structure (SMILES),"hERG current change (%, negative = inhibition) at 1uM [%]"
1,O=C(c1cc([N+](=O)[O-])ccc1Cl)N1CCN(c2ccccc2)CC1,4.13
2,O=C(NCc1ccccc1)c1ccc(CN2CCC(Cc3ccccc3)CC2)cc1,-0.898
3,O=C(Cc1n[nH]c(=O)c2ccccc12)NCc1ccc(Cl)cc1,3.62
4,Cc1ccc2c(Cl)cc(Cl)c(OCC(=O)N3CCCC3)c2n1,8.78
5,C=CCNC(=O)c1onc(CSc2ccc(C(C)C)cc2)c1C(=O)O,8.9
6,Cc1cc(=O)[nH]c(SCC(=O)NCCOc2ccccc2)n1,7.33
7,O=C(NC(=S)NCc1cccnc1)c1ccccc1,2.2
8,Cc1ccccc1-n1ncc2c(SCC(=O)NC3CCCC3)ncnc21,9.68
9,COCCN(CC(=O)Nc1cccc(C)c1C)C(=O)c1ccc(-n2cccn2)cc1,12.7
10,Cc1cc2cc(C)c3nnc(SCC(=O)Nc4ccc(S(=O)(=O)N5CCCCC5)cc4)n3c2cc1C,-0.905
11,COc1ccc(NC(=O)C(Cc2ccccc2)NC(=O)c2ccco2)cc1OC (stereo not shown),8.87
12,CNC(=O)c1c(NC(=O)c2cc(-c3cc(C)c(C)cc3O)n[nH]2)sc2c1CCCC2,9.36
13,COc1c2ccoc2c(OCC=C(C)C)c2oc(=O)ccc12,17
14,CCc1nc(SCC(=O)Nc2ccnc3ccccc23)n[nH]1,10.4
15,COC(=O)c1sccc1NC(=S)Nc1cc(C)cc(C)c1,2.85
16,Cc1cccc(C)c1NC(=O)COC(=O)CCC(=O)c1cccs1,13.8
17,Cc1nnc(SCC(=O)Nc2sc3c(c2C(=O)c2ccccc2)CCCC3)s1,17
18,O=C(Nc1ccccc1)c1nsnc1C(=O)Nc1ccccc1,10.8
19,O=C(Cc1ccccc1)N1CCN(C(=O)c2ccc([N+](=O)[O-])cc2)CC1,-25.4
20,COc1ccccc1CN1CCCC(N2CCN(c3ccccc3OC)CC2)C1 (stereo not shown),6.71
21,COCCNC(=O)CN(Cc1ccccc1)S(=O)(=O)c1ccc2nc(C)sc2c1,9.19
22,CN1C(=O)c2ccc(NC(=O)c3c(C(=O)O)cccc3[N+](=O)[O-])cc2C1=O,7.87
23,CC(NC(=O)/C(=C\c1ccco1)NC(=O)c1ccco1)C(=O)O (stereo not shown),14.1
24,Cc1c(CCCN)c2ccccc2n1Cc1ccccc1.Cl,6.34
25,CCOC(=O)/C=c1\s/c(=C\c2ccc(C(=O)OC)cc2)c(=O)n1CC(=O)Nc1ccccc1.Cl,10.1
26,COc1ccc(OCCC(=O)NCCN2CCOCC2)cc1.Cl,12.7
27,CCN(C(=S)Nc1cc(S(=O)(=O)N2CCOCC2)ccc1Cl)c1cccc2ccccc12,4.45
28,CN(C(=O)CSc1cn(CC(=O)N2CCOCC2)c2ccccc12)c1ccccc1,20.7

row,Structure (SMILES),"hERG current change (%, negative = inhibition) at 1uM [%]"
1,Cc1c(NC(=O)c2ccc(COc3ccc4ccccc4c3)o2)c(=O)n(-c2ccccc2)n1C,18.2
2,COC(=O)Cc1c(CSc2ccccc2)oc2ccc(O)c(CN(C)C)c12,-10.8
3,Cc1cc(C)cc(N2C(N)=NC(N)=NC2c2cccc(Cl)c2)c1.Cl (stereo not shown),7.55
4,O=[N+]([O-])c1cc(/C=N/n2c(-c3ccncc3)n[nH]c2=S)ccc1Cl,6.47
5,Cl.NC[C@@]12CCCC1C1CCC2C1 (stereo partly shown),-10.4
6,CN(Cc1ccccc1)C(=C(Cl)Cl)C(=C1NCCN1)[N+](=O)[O-],10.1
7,CCN(CC)CCn1c(NC(=O)c2ccc(Cl)cc2)nc2ccccc21,-0.305
8,CC(C)(C)C1CCC(C(=O)OCC(=O)Nc2ccc3[nH]c(=O)[nH]c3c2)CC1 (stereo not shown),12.6
9,C=CCN(c1ccccc1)S(=O)(=O)c1cccc(C(=O)NCC(c2ccccc2OC)N2CCCC2)c1 (stereo not shown),-12.9
10,COc1ccc(-c2csc3[nH]c(=S)n(-c4ccccc4)c(=O)c23)cc1OC,9.11
11,O=C(OC1CCOC1=O)c1cc(-c2ccc(Br)cc2)nc2ccccc12 (stereo not shown),-8.73
12,S=C(Nc1ccc(Nc2ccccc2)cc1)NN1CCOCC1,10.7
13,O=C(CSc1nc(C2CC2)nc2ccccc12)N1c2ccccc2Sc2ccc(C(F)(F)F)cc21,3.63
14,CCOC(=O)c1nnn2c3ccccc3c(=O)n(C)c12,5.58
15,C/C(=N\Nc1cccc(C(=O)O)c1)c1cc2ccccc2o1,7.85
16,Cc1nc(N2CCN(Cc3ccccc3)CC2)nc2c1C(=O)CCC2,13.7
17,CSc1ccc(CCNC(=O)C2CCCN(c3ncnc4c3nc3n4CCCCC3)C2)cc1 (stereo not shown),-2.32
18,COc1ccc(C)cc1NC(=S)N1CCOCC1,13.4
19,COc1ccc(C(=O)CSc2n[nH]c(-c3ccncc3)n2)cc1[N+](=O)[O-],19.3
20,N#Cc1ccc(OS(=O)(=O)c2ccc(-c3ccon3)s2)cc1,-20.8
21,O=C(COc1ccccc1F)NNC(=O)c1ccc2c(=O)n3c(nc2c1)CCC3,9.25
22,CC(=O)c1csc(COc2cc(Cl)cc(Cl)c2)n1,6.69
23,Cc1nc(Cl)cc(CS(=O)(=O)c2ccc(Cl)cc2)n1,19
24,CC1(C)C2CCC13CS(=O)(=O)N[C@@H]3C2 (stereo partly shown),17.5
25,COCCN(C(=O)COC(=O)CNC(=O)c1cccs1)c1c(N)n(Cc2ccccc2)c(=O)[nH]c1=O,10.3
26,COc1ccc(C(CNC(=O)CCOc2ccccc2)N(C)C)cc1 (stereo not shown),-13.2
27,Clc1ccc(Cn2c(-c3cccnc3Cl)nc3ccccc32)cc1,-15.7
